Source: PMC11543638, “Molecular basis for the reversible ADP-ribosylation of guanosine bases” (Molecular Cell, 2023)

Target: T1, P. nicotianae var. parasitica NADAR (Phytophthora nicotianae, UniProt W2PSB7)
T1 construct: gene PPTG_15997; full-length, in pDEST17 with HRV3C cleavage site allowing tag removal; expressed in E. coli
T1 sequence (W2PSB7 1-187): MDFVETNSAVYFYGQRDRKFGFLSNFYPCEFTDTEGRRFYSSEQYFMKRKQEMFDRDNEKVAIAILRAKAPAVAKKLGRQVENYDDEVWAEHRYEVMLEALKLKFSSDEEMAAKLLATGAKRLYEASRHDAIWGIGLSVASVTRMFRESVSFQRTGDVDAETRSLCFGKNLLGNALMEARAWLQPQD
Test: X-ray co-crystal structure
Format: binding
Conditions: 4 mM ADP-ribose; pH 7.5, 20 °C; active site

Question: Which X-ray co-crystal structure does the source give for `Nc1ncnc2c1ncn2[C@@H]1O[C@H](COP(=O)(O)OP(=O)(O)OC[C@H]2OC(O)[C@H](O)[C@@H]2O)[C@@H](O)[C@H]1O` (stereo partly shown) [ADP-ribose] here?
Answer: The X-ray co-crystal structure was “The ADPr ligand in the P. nicotianae var. parasitica NADAR crystallographic map displayed a bent”.
